Laboratory results reported in article PMC7949078.
Changes are numbered by the printed parent chain. Names and notes keep the numbering of the source. These are yes or no findings as the source states them, for the method shown. For part of these data: In cells and extracts the contact can be indirect. Some binding calls cover weakened binding; strength is not graded here. For part of these data: Sequences can lack the tags named with a protein. Each block holds one binder with its values, some of them ahead of it.

Key:
[1] = target: T1, Proline-rich acidic protein 1 (PRAP1), endogenous wild type in mouse intestinal epithelial cells (mouse (endogenous in intestinal epithelial cells)) (UniProt Q80XD8); test: co-IP; about 1 mg IEC lysate of control, PRAP1-/- or E85V mice in homogenization buffer (150 mM NaCl, 1 mM EDTA, 10 mM HEPES pH 7.4) immunoprecipitated with PRAP1- or MTTP-specific antibody; immunoblot for PRAP1 or MTTP; endogenous levels
T1 sequence: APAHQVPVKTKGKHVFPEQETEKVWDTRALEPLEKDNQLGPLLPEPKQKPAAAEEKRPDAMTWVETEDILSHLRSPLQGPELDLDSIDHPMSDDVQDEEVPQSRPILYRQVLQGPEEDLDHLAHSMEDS

[2] = target: T2, PRAP1 E85V mutant, endogenous in intestinal epithelial cells of E85V knock-in mice (mouse (endogenous in intestinal epithelial cells of knock-in mice)) (UniProt Q80XD8); test: as above
T2 sequence: T1 sequence with E65V

[3] = target: T3, Microsomal triglyceride transfer protein (MTTP), endogenous in mouse intestinal epithelial cells (mouse (endogenous in intestinal epithelial cells)) (UniProt O08601); test: as above
T3 sequence: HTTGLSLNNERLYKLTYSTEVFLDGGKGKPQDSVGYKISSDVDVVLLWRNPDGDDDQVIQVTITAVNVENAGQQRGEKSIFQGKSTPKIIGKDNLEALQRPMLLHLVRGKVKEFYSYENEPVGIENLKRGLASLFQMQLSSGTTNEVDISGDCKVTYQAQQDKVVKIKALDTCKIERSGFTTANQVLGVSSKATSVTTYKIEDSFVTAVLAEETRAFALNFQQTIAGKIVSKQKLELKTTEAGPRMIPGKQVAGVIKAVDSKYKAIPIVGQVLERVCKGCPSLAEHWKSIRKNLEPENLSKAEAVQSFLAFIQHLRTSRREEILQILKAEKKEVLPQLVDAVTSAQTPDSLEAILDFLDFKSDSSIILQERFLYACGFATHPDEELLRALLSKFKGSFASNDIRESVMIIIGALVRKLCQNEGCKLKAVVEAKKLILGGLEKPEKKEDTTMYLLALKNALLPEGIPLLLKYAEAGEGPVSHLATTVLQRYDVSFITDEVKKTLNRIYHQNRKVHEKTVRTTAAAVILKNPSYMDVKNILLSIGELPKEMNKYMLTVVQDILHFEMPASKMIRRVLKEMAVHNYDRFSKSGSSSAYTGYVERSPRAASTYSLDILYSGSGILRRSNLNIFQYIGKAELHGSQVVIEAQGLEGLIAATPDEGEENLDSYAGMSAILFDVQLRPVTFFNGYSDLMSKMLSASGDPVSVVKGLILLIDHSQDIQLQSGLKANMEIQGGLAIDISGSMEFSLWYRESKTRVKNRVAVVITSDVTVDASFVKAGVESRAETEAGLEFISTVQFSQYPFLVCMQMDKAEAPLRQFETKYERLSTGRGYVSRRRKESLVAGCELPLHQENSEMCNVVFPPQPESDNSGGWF

[4] = target: T4, FLAG-tagged MTTP (UniProt O08601); test: pull-down; FLAG-MTTP immunoprecipitated from HeLa cells, held on protein-G agarose, incubated 4 h with recombinant GST-PRAP1 (wt or mutant) in buffer A (50 mM Tris-HCl pH 7.4, 150 mM NaCl) with [3H]-TG (40-80 pmole); immunoblot with FLAG or GST antibody; both purified
T4 sequence: T3 sequence

B1: Microsomal triglyceride transfer protein (MTTP), endogenous in mouse intestinal epithelial cells (protein, UniProt O08601 22-894)
chain: T3 sequence
binding [1]: binds
binding [2]: no binding

B4: GST-PRAP1△N20 (GST-tagged recombinant PRAP1 lacking the N-terminal 20-aa signal peptide) (domain or fragment, UniProt Q80XD8 21-149)
chain: T1 sequence
binding [4]: binds

B5: GST-E118-119V (GST-PRAP1△N20 with the E118-119V mutation) (domain or fragment, UniProt Q80XD8 21-149)
chain: T1 sequence with E98V, E99V
binding [4]: binds

The next lines start with the values.

binding [3]: binds
B2: Proline-rich acidic protein 1 (PRAP1), endogenous wild type in mouse intestinal epithelial cells (protein, UniProt Q80XD8 21-149)
chain: T1 sequence

binding [3]: no binding
B3: PRAP1 E85V mutant, endogenous in intestinal epithelial cells of E85V knock-in mice (protein, UniProt Q80XD8 21-149)
chain: T1 sequence with E65V
